# Experimental data from the supplement of paper PMC11417369.
# ± gives the standard deviation of the averaged measurements. The list shows a part of the results.
# Tested on: PfAP2-I AP2 domain 3 (GST-tagged)
# Test: gcPBM binding intensity (ln(normalized median fluorescence intensity)); higher = stronger DNA binding
# In short: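 Plasmodium falciparum DNA-binding domains carrying a GST tag were expressed in E. coli and applied for 1 h, at about 25 μg on average, to an Agilent 4 × 180k array. The array held primer-extended double-stranded 36-bp intergenic genomic probes together with negative controls, and binding took place in 1× PBS with 1% milk, 0.2 mg/ml BSA, 0.5% salmon testes DNA and 0.03% Triton X-100. An Alexa488 anti-GST antibody detected bound protein, and the array was scanned at 488 nm. Binding intensity is taken as the highest Masliner-normalised natural-log median intensity across replicate spots of either probe orientation.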
row,Sequence,gcPBM binding intensity (ln)
1,TTATATATATATATATATATATATATATATATAAAT [GTGCAC_negctrl_site126],8.41 ± 0.23
2,AACAAAATAAGAAAACGTACAAATGTTTCAAATTCT [XGTACX_site1544],7.62 ± 0.71
3,TTTTCAAAGATATATACACACATGCATATTACGGTG [CACACA_site6505],8.24 ± 0.47
4,TTAATAAATATCAATACACACACACTAATGTGAATA [CACACA_site9254],7.52 ± 0.27
5,TTTTTGAGTGCACATACACACAGACATACATTTAAA [CACACA_site5813],10.8 ± 0.65
6,TTCAATATACATATGTGTACTAAAATAAATAGAAAA [XGTACX_site5708],8.15 ± 0.42
7,ATTACAACATTTTATACACACGTGATTATTAATTTT [CACACA_site5581],7.86 ± 0.58
8,GGATTCAAAAAAAAAAATAAAAGTAAATAATAAATA [TGCATGCA_negctrl_site348],7.25 ± 0.56
9,TAAATATATTTATACACACACACCAAAGCAATAGAT [CACACA_site7393],8.29 ± 0.42
10,TATATTTCAGGGGGGAGTACAAATTTTTTTATATAA [XGTACX_site1600],11 ± 0.52
11,TTTATGAAGTAAAAATATAAATTCACAAAGTTAAAA [CACACA_negctrl_site1476],7.49 ± 0.65
12,AAGAACAGAACGTACACACACATATTTATATTTATA [CACACA_site7594],8.22 ± 0.21
13,TAAGGAAAAAAAATATGTACTTATAGTTCCTTCTTT [XGTACX_site2202],7.63 ± 0.45
14,ATTTGTAATATTAAATGTACAGGTAAGAAATATCAG [XGTACX_site1562],8.22 ± 0.18
15,TTAATATATATATATATATATATATTTTTATTTTTT [CACACA_negctrl_site763],7.78 ± 0.26
16,TGTATTAACAAAAAGGTGCGGATATATATAAAAAAT [GTGCAC_site9473],9.59 ± 0.13
17,AAAATGTTATTGGAAAGTACAAAAAAAATTATATAA [XGTACX_site4074],7.76 ± 0.51
18,CATATATAGATATATACACACATATATAAATAAATA [CACACA_site6759],7.6 ± 0.45
19,ATAAAACGTACAATGGTGCATATAAATAATATATAT [GTGCAC_site9960],11 ± 0.52
20,TATGTATATTCTTTCAGTACACATAATGTTGTCATA [XGTACX_site8845],7.85 ± 0.45
21,CATTAATATATATATACATGCACGTTTTAAAAAAAA [TGCATGCA_site875],9.1 ± 0.52
22,ATGGGAATATAATTATGTACATATAAAAATTATAAA [XGTACX_site5336],7.75 ± 0.38

row,Sequence,gcPBM binding intensity (ln)
1,TAATTATGCAGACACACACACACACGCAACTAAAAA [CACACA_site7253],8.31 ± 0.47
2,AAAAAATATTTTTACAGTACATATATATAAAATGTT [XGTACX_site3215],7.79 ± 0.38
3,TCATTTCACGGACACACACACACAATATATTTCCTT [CACACA_site6023],8.38 ± 0.63
4,TAACAAAGGAAAGATATACACACGTATGCATGATAA [CACACA_site2520],7.87 ± 0.83
5,TTTTTTTTTTAATTCGCACACTGTCTTCATACAATT [CACACA_site1379],8.62 ± 0.65
6,ATATATATATATTTATGTACTTAATAATTTATTCAC [XGTACX_site7301],9.15 ± 0.085
7,TGCAGTCTGGAGAAAAGTACATAGTATCTGGTAACC [XGTACX_site2019],7.88 ± 0.57
8,TTTTTATTACATAATTAAAAAAAATAATAAAATAAA [XGTACX_negctrl_site249],7.33 ± 0.25
9,TAAAAAATATAAACTGCACACACAAAAAAAAAAGAG [CACACA_site8379],9.3 ± 0.042
10,AATTTAAAATAATATTGTACTTAGATATAAATATGA [XGTACX_site4198],7.54 ± 0.18
11,TAATATCTAAAAAATATATTTTTTATTTTTTATTAA [CACACA_negctrl_site510],7.38 ± 0.6
12,ATATCATTAAAAGGATGTACATATGTGTATACAATA [XGTACX_site871],8.26 ± 0.56
13,TACATACATACATACACACACACATATATATACATA [CACACA_site853],8.88 ± 0.67
14,ATGGTACACAAATATACATGCAATAATAAAAAAAAA [TGCATGCA_site879],8.11 ± 0.68
15,CACACCCACCAACACACACACACACCCACCCATATA [CACACA_site366],8.03 ± 0.37
16,TTATAAATGAATAAATGTACAAAATATATATATATA [XGTACX_site8829],9.39 ± 0.17
17,CATAACATAAAATAGGTGCACAAAAATTGTAATTGA,11.37 ± 0.021
18,TTCAGTGTATACATATGTACATATATATATATATAT [XGTACX_site1621],9.18 ± 0.24
19,ATTTTTATTTGTTACGCATGCATAAAAGTGCATACT [TGCATGCA_site547],9.44 ± 0.93
20,TTGTAATATATGTATTGTACGCATATAACAATTATT [XGTACX_site3652],7.92 ± 0.13
21,AAAATACATAAATGTTCACACATTAAAAAGCAGAAG [CACACA_site5346],7.85 ± 0.62
22,TATGTCAGATGAAAGGGTACATAATATAATATATTT [XGTACX_site8062],7.76 ± 0.47

row,Sequence,gcPBM binding intensity (ln)
1,TTTATAAAGAAACACACACACATGTGAACATAAAAA [CACACA_site1908],7.92 ± 0.85
2,TGTATGAAATATATTACACACATATATAATATATAT [CACACA_site793],7.79 ± 0.42
3,GTGTAAATAAGGATATATAACAATCAACAAAACATA [CACACA_negctrl_site1759],7.9 ± 0.54
4,ATACACAAAATTATTAAATCAATAAATATATGGTTT [CACACA_negctrl_site353],7.44 ± 0.48
5,ATATTTTTCAAACATCGTACATTATGAGTTAAAATT [XGTACX_site584],7.71 ± 0.47
6,TATATTTTCTATAGGTGTACTCCACATGCGGTGTTA [XGTACX_site7471],7.96 ± 0.13
7,ATATTGATACATCCAATACACACTACATATAATGAT [CACACA_site1874],7.88 ± 0.59
8,AATATATATAAATATTGTACAAAAATATATATATAT [XGTACX_site2910],9.04 ± 0.26
9,ATATATGATGTAAAAGCACACATATATATATATATA [CACACA_site9330],9.57 ± 0.46
10,TCCCTCTTTTTATTCTCACACACGTTTATATATAAA [CACACA_site1644],8.34 ± 0.58
11,TATATAAACATATAAACATGCAATATATATATGTTA [TGCATGCA_site765],7.67 ± 0.56
12,AAAAAAATTAAATCAAGTACTCATTCTTAAATTATA [XGTACX_site1274],7.32 ± 0.49
13,AAAAATATATAACAAAGTACATATATATTTAGTAAT [XGTACX_site8791],7.43 ± 0.4
14,GGAAAAAAACTTATGAGTACACATAAATATAGCACA [XGTACX_site6686],10.2 ± 0.54
15,TGTAGGTATTATTATACACACATAAAAAAAAAAAAA [CACACA_site3598],8.04 ± 0.46
16,TAAAATATTATAAAATGTACAAAACATATAAATATA [XGTACX_site5315],7.5 ± 0.4
17,AAATTAAAAAGACATTCACACATTTTCATCTTAACA [CACACA_site5221],7.71 ± 0.64
18,AAACATATATATATTATATATATATATATATATATG [GTGCAC_negctrl_site182],8.05 ± 0.35
19,TAACATATAATATTCACACACATATATATATTATAT [CACACA_site988],7.83 ± 0.44
20,TATTATTATCTTACCACACACAATGTACGAAAAGAT [CACACA_site352],8.19 ± 0.44
21,GGAAAAACCATTCGCACACACACATAATATATAATA [CACACA_site1424],8.32 ± 0.43
22,ATTAATATATATGGATGTACTTATGTATGTATGCAT [XGTACX_site2263],7.88 ± 0.6

row,Sequence,gcPBM binding intensity (ln)
1,ATAATAATATATATTACACACGCATCGTTCATTTAT [CACACA_site8752],8.03 ± 0.65
2,CATGTATAATATAATACACACTATATAATATACACC [CACACA_site5267],8.16 ± 0.22
3,ATGGCCATAATATAGACACACATATATAAATATATA [CACACA_site2230],7.39 ± 0.53
4,CGATATGTTCAATATTGTACTATTTATAATAATATG [XGTACX_site3051],7.67 ± 0.35
5,TATTGACAAAATAGCTGTACAAATTAAAAGAAATAA [XGTACX_site4415],7.75 ± 0.54
6,TCTTACTAATATCGCACACACATATGTAGACGGGAT [CACACA_site87],8.73 ± 0.22
7,TATTTATATGGACACACACACATATAAATAAATAAA [CACACA_site6346],8.03 ± 0.55
8,TTTAATTGATAATGAAGACAATTATATGCATCCAAA [TGCATGCA_negctrl_site138],7.9 ± 0.28
9,TTATTGTCTTCTCATATACACACTTTTATGACTATC [CACACA_site3142],8.07 ± 0.74
10,CTTAAAAAAAAAAAATGTACACATAAAAAAAATACA [XGTACX_site6700],8.145 ± 0.007
11,TAAATAAGGAAGGAAACACACATTAAAAAATAAATA [CACACA_site618],7.83 ± 0.5
12,TTTTTAAATTATTTGAAAAAAAGAAAATTATAAACA [CACACA_negctrl_site1599],7.49 ± 0.41
13,AACAGAAGCACATACACACACTCAAAAAAAAAAAAA [CACACA_site5652],8.24 ± 0.17
14,ATTTTATTCTAAAAAGGTACACATATTATTTTATGA [XGTACX_site7233],7.55 ± 0.35
15,TTAAAGCTTACATATACACACATACATAAATTCATA [CACACA_site8785],7.72 ± 0.47
16,TATGATGATATAAAAACACACACATATAATATAATA [CACACA_site8321],7.87 ± 0.63
17,GTAAAATAAAATATATGTACATATGTATATGAGGTA [XGTACX_site3743],8.15 ± 0.6
18,GACATATTCCCCCCCACACACACACCCACATACATA [CACACA_site2302],10.8 ± 0.26
19,TTTTGATCATCCAAAATATCTTCATCTGAACTACTA [CACACA_negctrl_site939],7.4 ± 0.68
20,ATTTAGAAATATATTTGTACATATATATATATATAT [XGTACX_site7129],9.47 ± 0.35
21,ATTCAAACAAATTAATGTACATATATATAAGATATT [XGTACX_site1531],7.75 ± 0.43
22,TACCCTGATCGGCATGCATGTAAGTAACAAATATAT [TGCATGCA_site153],7.85 ± 0.67
